# Source: PubChem BioAssay AID651820 (National Center for Advancing Translational Sciences (NCATS), 2012)
# The campaign covered roughly 340,000 compounds. About 12,000 (3.5%) were called active. Inconclusive results, whose numbers are uncertain, are shown with a selection of clear calls. The call rests on the fitted dose curve; in most records, active means well fitted inhibition curve with a large enough effect; inconclusive means small, poorly fitted or top-dose-only effect, or another doubt; inactive means no such curve, though single readings can be large or run the other way. Potencies of inconclusive entries are left out as doubtful fits.
# Assay: qHTS Assay for Inhibitors of Hepatitis C Virus (HCV)
# Details: Huh7.5.1 HCVcc-Cre (HCVcc is cell-culture hepatitis C virus) infection, luciferase reporter, 44 h; activity change, negative = inhibition: at 41.8 µM (top of the series) unless noted
# In short: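 1,000 cells/well; 4 h culture; + compound; + HCVcc-Cre (~0.5 moi); 44 h; luciferase substrate, RT 15 min; read 15 sec.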
# On the % scale 0 is the no-effect control and ±100 the full control effect; potency means the concentration at half of the fitted maximal effect; tags describe the fitted curve by direction and shape.
SMILES,"activity change, negative = inhibition",Potency
CC[C@]12C(=O)N(C)C[C@H]([C@@H]3C(=O)N(Cc4ccccc4)C(=O)[C@@H]31)N2C(=O)c1ccc(F)cc1,inactive: 3.28%,–
O=C(CNCC1CCCO1)Nc1ccc(N2CCCCCC2)cc1 (centres undefined),inactive: -10.6%,–
O=c1c2ccccc2nnn1CSc1ccc2ccccc2n1,inactive: 4.37%,–
COc1cc2ccccc2cc1C(=O)Nc1ccc(NC(=O)c2cccs2)cc1,–,"inconclusive [inhibitor, partial curve]"
CC(=O)S[C@@H]1CC2=CC(=O)CC[C@]2(C)[C@H]2CC[C@@]3(C)[C@@H](CC[C@@]34CCC(=O)O4)[C@H]12,–,"inconclusive [inhibitor, single point]"
Cc1ccccc1OC1C(=O)N(Cc2ccc3c(c2)OCO3)C1c1sccc1C (centres undefined),–,"inconclusive [inhibitor, single point]"
COC(=O)c1ccc(NC(=S)N2CCN(Cc3ccc(Cl)cc3)CC2)cc1,–,"inconclusive [inhibitor, single point]"
COc1cc(/C=C/C(=O)OCC(=O)N2CCC(C)CC2)ccc1OCC#N,inactive: -4.58%,–
Cc1cc(F)ccc1S(=O)(=O)N1CCC2(CC1)OCCN2S(=O)(=O)c1cccs1,–,"inconclusive [inhibitor, single point]"
Cc1ccc(C(=O)c2cc([N+](=O)[O-])ccc2N2CCOCC2)cc1C,–,"inconclusive [inhibitor, full curve, poor fit]"
CC(CNC(=O)c1cc(COc2c(F)cccc2F)on1)Oc1cccnc1 (centres undefined),–,"inconclusive [inhibitor, partial curve]"
COCCn1c(C)cc(/C=C(\C#N)C(=O)OCC(=O)N(C)c2c(N)n(Cc3ccccc3)c(=O)[nH]c2=O)c1C,inactive: 13.6%,–
COc1ccccc1S(=O)(=O)Cc1ccc(C(=O)NCCCN2CCN(c3ccc(F)cc3)CC2)o1,–,"inconclusive [inhibitor, partial curve]"
O=C(NCCC1=CCCCC1)c1coc(=O)c(Br)c1,–,"inconclusive [inhibitor, single point]"
O=[N+]([O-])c1ccccc1S(=O)(=O)NCCSCc1ccco1,inactive: 0.368%,–
Cc1cc(NC(=O)COC(=O)CCS(=O)(=O)c2ccc(Cl)cc2)no1,–,"inconclusive [inhibitor, single point]"
Cn1ccnc1SCc1cn2ccccc2n1,inactive: 7.14%,–
CCCOc1ccc2cc(-c3ccccn3)c(=O)oc2c1,inactive: -22.1%,–
CCN(CC(=O)Nc1cccc(S(=O)(=O)N2CCCC2)c1)CC(=O)Nc1ccccc1OC,–,"inconclusive [inhibitor, single point]"
O=C(Nc1nc(-c2ccc3c(c2)OCCO3)cs1)c1ccc(S(=O)(=O)N2CCCCC2)cc1,–,"inconclusive [inhibitor, full curve]"
CCN(CC)CCNC(=O)c1ccc(NC(=O)c2cn(-c3ccccc3)nc2-c2cccs2)cc1,–,active: 11.2 µM
CN1CCc2nc(SCC(=O)Nc3cccc(F)c3)c(C#N)c(-c3cccs3)c2C1,–,"inconclusive [inhibitor, full curve]"
Cc1cccc(C)c1NC(=O)Cn1c(=O)n(CCCC(=O)NC2CCN(Cc3ccccc3)CC2)c(=O)c2ccccc21,–,"inconclusive [inhibitor, partial curve]"

SMILES,"activity change, negative = inhibition",Potency
CCOc1ccccc1Nc1nnc(SCC(=O)N2CCCC2)s1,–,active: 25.1 µM
COc1ccc(-c2n(Cc3ccccc3)c3ccccc3[n+]2Cc2ccccc2)cc1,–,"inconclusive [inhibitor, single point]"
N#Cc1nc(N2CCCCC2)nc(N2CCOCC2)n1,–,"inconclusive [inhibitor, partial curve]"
CC(=O)N1CCN(c2nc(-c3cccs3)nc3ccccc23)CC1,–,active: 11.2 µM
Cn1cccc1-c1nc2ccc(NC(=O)c3ccc([N+](=O)[O-])cc3)cc2[nH]1,–,"inconclusive [inhibitor, partial curve, poor fit]"
CCc1ccc(NS(=O)(=O)c2ccc3c(c2)oc(=O)n3C)cc1,–,"inconclusive [inhibitor, single point]"
Cc1ccccc1NC(=O)c1cc2ccccc2o1,inactive: 4.27%,–
O=S(=O)(c1ccc2c(c1)C(=NO)c1cc(S(=O)(=O)N3CCCCC3)ccc1-2)N1CCCCC1,–,active: 5.01 µM
COc1ccc(N(C)C(=O)c2ccc3c(Cl)c4c(nc3c2)CCCC4)c(OC)c1,–,"inconclusive [inhibitor, single point]"
CN(C)C(CNC(=O)c1ccc2c(c1)S(=O)(=O)c1ccccc1C2=O)c1ccco1 (centres undefined),–,"inconclusive [inhibitor, single point]"
Cc1c([N+](=O)[O-])c([N+](=O)[O-])nn1CC(=O)NCc1cccnc1,inactive: 5.54%,–
O=C(Nc1ccc(F)cc1)c1cc(S(=O)(=O)N2CCCCC2)ccc1F,–,"inconclusive [inhibitor, single point]"
Cc1ccc(C(=O)NNC(=S)NC(=O)c2ccccc2)cc1,–,"inconclusive [inhibitor, partial curve]"
CCOC(=O)c1c(CC(C)C)csc1NC(=O)COC(=O)c1ccc(O)cc1,–,"inconclusive [inhibitor, single point]"
O=C(NC1CCS(=O)(=O)C1)/C(=C/c1ccco1)NC(=O)c1ccccc1 (centres undefined),–,active: 7.08 µM
COc1ccc(NC(C)=O)cc1NC(=O)c1ccc2ccccc2c1,inactive: -8.44%,–
CC(=O)N(C)c1ccc(OCC(O)CN(c2ccccc2C)S(=O)(=O)c2ccc(C)cc2)cc1 (centres undefined),–,"inconclusive [inhibitor, single point]"
OC1CCNC(=S)N1c1ccccc1 (centres undefined),–,"inconclusive [inhibitor, single point]"
COc1ccc(NC(=S)NC(=O)c2cncc(Br)c2)c(OC)c1,–,"inconclusive [inhibitor, partial curve, poor fit]"
O=C1OC[C@H]2CCCN2C(=O)[C@@H](CC(=O)N(CCO)Cc2ccccc2)C/C=C\CC[C@H]1Cc1ccc(F)cc1,inactive: 9.91%,–
C=C(C)n1c(=O)n(Cc2ccccc2C)c2ccccc21,inactive: -10.3%,–
COc1cccc(CNC(=O)c2ccc(C3SCCS3)cc2)c1,inactive: -29.4%,–
N=C1C(c2nc3ccccc3[nH]2)=C(O)CN1c1ccccc1,–,"inconclusive [inhibitor, single point]"

SMILES,"activity change, negative = inhibition",Potency
Cc1ccc(CCNC(=O)CCS(=O)(=O)c2ccc3c(c2)oc(=O)n3C)cc1,inactive: 1.68%,–
COc1ccc(C(=O)O/N=C(/c2ccccc2)c2ccncc2)cc1,inactive: -2.24%,–
COc1ccc(-c2nc(CN3CCN(c4ccccc4OC)CC3)c(C)o2)cc1,–,"inconclusive [inhibitor, single point]"
Cc1ccccc1N(C(=O)c1snc(C(N)=O)c1N)C(C(=O)NCC1CCCO1)c1ccc(N(C)C)cc1 (centres undefined),inactive: -1.3%,–
c1ccc(-c2nc(NCc3ccco3)c3ccccc3n2)nc1,–,"inconclusive [inhibitor, partial curve]"
Cc1cc(NS(=O)(=O)c2ccc(NC(=S)NC(=O)c3ccc(Br)cc3)cc2)no1,inactive: -1.47%,–
COc1ccc(CSCCNC(=S)Nc2ccccc2)cc1Cl,–,"inconclusive [inhibitor, partial curve]"
Nc1nonc1C(=O)N/N=C/c1cccc([N+](=O)[O-])c1,inactive: 3.45%,–
Cc1ccc(-n2c(SCCN)nnc2-c2cccc(C)c2)cc1,–,"inconclusive [inhibitor, partial curve]"
COc1ccc(-c2csc(NC(=O)CN3C(=O)NC4(CCCC4)C3=O)n2)cc1OC,–,"inconclusive [inhibitor, partial curve, poor fit]"
COC(C(=O)Nc1ccnn1C1CCN(C(=O)c2ccc(C=O)cc2)CC1)c1ccccc1 (centres undefined),–,"inconclusive [inhibitor, single point]"
CN(C#N)c1nc(N2CCOCC2)nc(N2CCOCC2)n1,–,"inconclusive [inhibitor, single point]"
C#CCN(C(=O)CC1C(=O)NCCN1C/C=C/c1ccccc1)C1CCCCC1 (centres undefined),inactive: 7.91%,–
CN(CC(=O)Nc1ccc(N2CCOCC2)cc1)C(=O)CSc1ccccc1F,–,"inconclusive [inhibitor, single point]"
CCOC(=O)c1c(-c2ccc(C)o2)csc1NC(=S)NC(=O)c1ccccc1Br,–,"inconclusive [inhibitor, single point]"
COc1ccccc1CN(C)C(=O)c1cc(-c2cc(OC)c(OC)c(OC)c2)nc2ccccc12,–,"inconclusive [inhibitor, partial curve, poor fit]"
CC(C)NC(=S)N=Nc1c(O)[nH]c2ccc([N+](=O)[O-])cc12,–,active: 1.12 µM
CCOn1c(=O)c[n+]([O-])c2ccccc21,inactive: 16.8%,–
COc1ccc(CNC(=O)Cc2nn(C)c(=O)c3ccccc23)cc1,–,"inconclusive [inhibitor, partial curve]"
Cc1cc(C(=O)OCC(=O)N2CC(=O)Nc3ccccc32)c(C)n1-c1ccccc1,–,"inconclusive [inhibitor, partial curve]"
COc1cc(-c2ccc3oc(-c4ccsc4)cc(=O)c3c2)cc(OC)c1OC,–,"inconclusive [inhibitor, partial curve]"
O=[N+]([O-])c1ccn(-c2nc(-c3cccs3)cc(C(F)(F)F)n2)n1,–,"inconclusive [inhibitor, partial curve]"
O=C(CSc1nc2cc(Cl)ccc2s1)N1CCCc2ccccc21,–,"inconclusive [inhibitor, single point]"
